± gives the standard deviation of the averaged measurements. This is one part of the list.

The test system of this assay is PfAP2-I AP2 domain 3 (GST-tagged). The assay is described as follows: gcPBM binding intensity (ln(normalized median fluorescence intensity)); higher = stronger DNA binding. Put shortly:
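GST-tagged P. falciparum DNA-binding domains produced in E. coli were incubated for 1 h on an Agilent 4 × 180k array of primer-extended double-stranded 36-bp intergenic genomic probes with negative controls. Binding intensity is the highest Masliner-normalised natural-log median intensity across replicate spots of either probe orientation, with bound protein detected by Alexa488 anti-GST antibody at 488 nm.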
With “ATATATACATTTCTATGTACATATGTATATATGTAT [XGTACX_site1522]”, the “gcPBM binding intensity (ln)” value turned out to be 7.76 ± 0.32. On to “ATAAAAGAAAACAATAGTACTTTAGTTTTTCTTTTT [XGTACX_site5686]”, for which the “gcPBM binding intensity (ln)” value is 7.54 ± 0.34. As to “TTAATCTAGAGAAATTGTACATTTTATTAACACAAT [XGTACX_site1190]”, the “gcPBM binding intensity (ln)” value came out at 7.52 ± 0.52. For the sequence “TATATTTGGAAACACACACACAAAAAAAAAAAAAAA [CACACA_site2474]”, the “gcPBM binding intensity (ln)” value was determined as 8.16 ± 0.76. The figure for “ATATTTTCTAATCAATGTACTTATTCTACACATTAA [XGTACX_site5774]” is 8.03 ± 0.52; for “ACTACATAAAATGACACACACAAACTTTAAAATTTA [CACACA_site3474]” it is 7.84 ± 0.3; for “CACCTGCACGATTGCACACAAATATGTTTTGAAGAT [CACACA_site2103]” it is 9.39 ± 0.45.

Take ATATTTTATGTAAAGGTGCAAAACAACATTAAAAAA: the “gcPBM binding intensity (ln)” value was 10.9 ± 0.47. The figure for “AACACATACAGACACACACACAAAAAAAAAAAAAAA [CACACA_site6322]” is 8.24 ± 0.49; for “ACCCAATTTTTTAGTACACACATATAAATATATAAA [CACACA_site4944]” it is 8.32 ± 0.22.

With “TAAAACATGTTTTTATATATTATTATTATATTTATA [XGTACX_negctrl_site8]”, the “gcPBM binding intensity (ln)” value is 7.33 ± 0.43. Regarding “AGGATATATAATTAAGTGCATTAATTCAAAATAAAA [GTGCAC_site9702]”, the “gcPBM binding intensity (ln)” value was found to be 11.5 ± 0.54. Take “CATATATAAATCATGTGTACGTATTGAGTATCTACT [XGTACX_site6278]”: the “gcPBM binding intensity (ln)” value was 7.88 ± 0.26. For the sequence “ATAAGATATGTATATACACACATTTATTTACCTATA [CACACA_site7521]”, the “gcPBM binding intensity (ln)” value was 7.98 ± 0.45. The figure for “TTATTATTTTATAACACACACATATATATTATATCT [CACACA_site1434]” is 8 ± 0.47. The figure for ATATGACTTAAATATGTGCGCATTTTTTTTTTTTTT is 8.58 ± 0.4. On to “TACACAAGAAAATTCACACACACACGGATATTTATA [CACACA_site7765]”, for which the “gcPBM binding intensity (ln)” value is 7.7 ± 0.44. The figure for “GTATCGAAGTAAATACGTACTTAAATATGTTTAAAA [XGTACX_site1353]” is 7.48 ± 0.37; for “ACGTACTGCCCTAAAGTGCATATATAATATAAACGA [GTGCAC_site9911]” it is 10.1 ± 0.34. As to “CTTTAAACCCTGAACACACACAAATACAGACAAAAA [CACACA_site247]”, the “gcPBM binding intensity (ln)” value was found to be 8.05 ± 0.61. The figure for “GTATTTTAATATAAATGTACATAAATGTTATATATA [XGTACX_site3475]” is 7.69 ± 0.27; for “AATATTGTATATAATAAACACACAATATTAAAAATA [CACACA_site8262]” it is 7.57 ± 0.39. The same measure for “CATTAATAACAAAGTTGTACAAGATAATATTATATG [XGTACX_site6832]”: 8.06 ± 0.56; for “ATCTAGCCATTTTTTAGTACACATAAATAAAAAAAA [XGTACX_site1257]”: 8.37 ± 0.014.

As to “TTTTATTTGACAAGCACACACTTAAATATATTTATA [CACACA_site7557]”, the “gcPBM binding intensity (ln)” value was 8.09 ± 0.61. For the sequence “ACATAAGAAGTTATATGTACATATATTTTTTAAATT [XGTACX_site8078]”, the “gcPBM binding intensity (ln)” value stood at 7.68 ± 0.41. The figure for “AAAACATTTTCAAACTGTACACATAGAACTATGCAT [XGTACX_site4087]” is 7.78 ± 0.61; for “TAAACAAAATATATATGTACATATATATATATATAT [XGTACX_site6502]” it is 9.51 ± 0.59. As to “TCATAAAATATGTTTTGTACATAAAATTAAACAAGT [XGTACX_site1763]”, the “gcPBM binding intensity (ln)” value amounted to 7.74 ± 0.47. The figure for “AAATAAGAGAAAATATGTACATACATATATTTATAT [XGTACX_site6210]” is 7.72 ± 0.57. The same measure for “AATACGTTTATATATTGTACGTTATATATATATATA [XGTACX_site7452]”: 9.21 ± 0.59; for “AAATATAAATAAAGATGTACATTATCTATATGTGAT [XGTACX_site4863]”: 7.67 ± 0.45.

For the sequence “ATATAATTTGTTATACTAACTTTTTAATTATTGATA [GTGCAC_negctrl_site443]”, the “gcPBM binding intensity (ln)” value was 7.4 ± 0.54. The same measure for “AAGAAAAGCAAACAAGTGCATAATAACAAAAAAAAT [GTGCAC_site9725]”: 10.7 ± 0.38; for “TATTTATTTATAAACACACAAATATTTTTATTTATA [CACACA_site6889]”: 7.53 ± 0.47; for “TAAGTTCGAATTACTTAAATATTGATTTTTTTAAAA [TGCATGCA_negctrl_site114]”: 7.17 ± 0.38. With “AATTTTCTACAAATGTGTACTAAATAAAATATTACT [XGTACX_site7175]”, the “gcPBM binding intensity (ln)” value turned out to be 7.81 ± 0.44. The same measure for “AAAAAAGAAAAAAGGACACACATAAATATACACCCG [CACACA_site5590]”: 8.06 ± 0.53; for “ACAATGAGGATATATACACACATACATTAAAAAAAT [CACACA_site6955]”: 7.79 ± 0.6. The same measure for “TTTTTCTGTTCTTTTTGTACTTAAATATATTTATTT [XGTACX_site5658]”: 7.91 ± 0.85; for “ATGTGTGTATTTTATAGTACAGTTACAAGCATTTTT [XGTACX_site6351]”: 7.84 ± 0.49; for “AGAATATAATTTTTATGTACATATATTAAATATATT [XGTACX_site8521]”: 7.6 ± 0.37. With “CACAAAAATAAACACACACACATATATATATATATA [CACACA_site4704]”, the “gcPBM binding intensity (ln)” value was determined as 9.39 ± 0.42. In the case of “TTCTTTTTGAAATATTAACACACATTTTGTTAATTA [CACACA_site9337]”, the “gcPBM binding intensity (ln)” value worked out at 7.71 ± 0.56.

Regarding “CAAACATTTTAATGTACACACACCCACAGACAAACA [CACACA_site5522]”, the “gcPBM binding intensity (ln)” value is 8.44 ± 0.099.

On to “AGGAATTTATAAAATTGTACTTTTAATTACCTACAG [XGTACX_site3153]”, for which the “gcPBM binding intensity (ln)” value was 7.75 ± 0.29.

In the case of “ACCATGATAAATGTATTAAATGTATCATAACCTATG [CACACA_negctrl_site513]”, the “gcPBM binding intensity (ln)” value came to 7.38 ± 0.56.

In the case of “AACGAAAGAAAAAAAGCACACACAGTTTTGAGCAAT [CACACA_site8658]”, the “gcPBM binding intensity (ln)” value is 7.98 ± 0.78. The figure for “ATCCGTGTCTGAAATACACACATGATAATGTGAATG [CACACA_site8210]” is 7.7 ± 0.58. Consider “ATGGAAACAAGCATCACACATATAAATATATATATA [CACACA_site4979]”, for which the “gcPBM binding intensity (ln)” value is 9.075 ± 0.035. The same measure for “TAAGATGATATAGACTGTACATATTGAACTTACAAG [XGTACX_site4290]”: 7.47 ± 0.58; for “GTTTTTAAATATGCCATACACACTACTATATAATAA [CACACA_site1927]”: 8.17 ± 0.45. “TAATATATTAATTTTTGTACTTAATTATATGTTTTT [XGTACX_site5654]”: the “gcPBM binding intensity (ln)” value turned out to be 7.33 ± 0.4. The figure for “GAAGAAAAAGAAAAAAGTACATATATTATATTATAA [XGTACX_site7870]” is 7.73 ± 0.42. The figure for “ATTCATATTAAATATATATATATATATATATATATA [CACACA_negctrl_site484]” is 9.28 ± 0.64. The figure for “ATATTTATATTTATGTGTACATATGAAATAATTATT [XGTACX_site7765]” is 7.82 ± 0.41; for “TAATATATTATGAGGGGTACATAATATGGTTTATTG [XGTACX_site8301]” it is 7.84 ± 0.49.
